The values that follow come from the supplement of paper PMC12230231.

± gives the standard deviation of the averaged measurements. Restriction of a single-cycle SIVsab GFP reporter by TRIM5α v1-loop variants in CRFK cells. Human variants: read share among cells still uninfected after two challenges over input, higher = gained restriction. Rhesus variants: share among infected cells over input, higher = lost restriction. Reporter dose not given per row. No active / inactive call per row; the paper calls a change when both replicates lie above its controls (mean + 2 SD of stop or wild-type variants, or the top frameshift score). Residues outside the varied loop are taken from Swiss-Prot. The paper reads the human single-substitution scores as noise; they and the rhesus combinations repeat poorly (rank correlation 0.3 to 0.4), indel scores repeat only for the top variants, rhesus substitutions well (0.9).

The first series concerns SIVsab (simian immunodeficiency virus of sabaeus monkeys), single-cycle GFP reporter, in CRFK cells. Nature of the series: enrichment among uninfected cells over input (fold); higher = stronger restriction. The conditions noted are these: library: human / rhesus combinations. On the procedure: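 Pools of CRFK cells expressing variants of the TRIM5α v1 loop were challenged with the single-cycle reporter, sorted by GFP and sequenced; mean of two replicates.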
Turning to “MASGILVNVKEEVTCPICLELLTQPLSLDCGHSFCQACLTANHKKSMLDKGESSCPVCRISYQPENIRPNRHVANIVEKLREVKLSPEGQKVDHCARHGEKLLLFCQEDGKVICWLCERSQEHRGHHTFLTEEVAREYQVKLQAALEMLRQKQQEAEELEADIREEKASWKTQIQYDKTNVLADFEQLRDILDWEESNELQNLEKEEEDILKSLTNSETEMVQQTQSLRELISDLEHRLQGSVMELLQGVDGVIKRTENVTLKKPETFPKNQRRVFRAPDLKGMLEVFRELTDVRRYWVDVTVAPNNISCAVISEDKRQVSSPKPQIIYGARGTRYTFPSFTNFNYCTGILGSQSITSGKHYWEVDVSKKTAWILGVCAGFQPDAMCNIEKNENYQPKYGYWVIGLEEGVKCSAFQDSSFHTPSVPFIVPLSVIICPDRVGVFLDYEACTVSFFNITNHGFLIYKFSHCSFSQPVFPYLNPRKCGVPMTLCSPSS [human TRIM5α, 330-340 = GARGTRYTFPSFT]”, the enrichment was 0.152 ± 0.029.
Consider “MASGILVNVKEEVTCPICLELLTQPLSLDCGHSFCQACLTANHKKSMLDKGESSCPVCRISYQPENIRPNRHVANIVEKLREVKLSPEGQKVDHCARHGEKLLLFCQEDGKVICWLCERSQEHRGHHTFLTEEVAREYQVKLQAALEMLRQKQQEAEELEADIREEKASWKTQIQYDKTNVLADFEQLRDILDWEESNELQNLEKEEEDILKSLTNSETEMVQQTQSLRELISDLEHRLQGSVMELLQGVDGVIKRTENVTLKKPETFPKNQRRVFRAPDLKGMLEVFRELTDVRRYWVDVTVAPNNISCAVISEDKRQVSSPKPQIIYGARGTRYTFPSFVNFNYCTGILGSQSITSGKHYWEVDVSKKTAWILGVCAGFQPDAMCNIEKNENYQPKYGYWVIGLEEGVKCSAFQDSSFHTPSVPFIVPLSVIICPDRVGVFLDYEACTVSFFNITNHGFLIYKFSHCSFSQPVFPYLNPRKCGVPMTLCSPSS [human TRIM5α, 330-340 = GARGTRYTFPSFV]”, for which the enrichment was 0.0744 ± 0.1.
Still for that read-out and setting: the same measure for “MASGILVNVKEEVTCPICLELLTQPLSLDCGHSFCQACLTANHKKSMLDKGESSCPVCRISYQPENIRPNRHVANIVEKLREVKLSPEGQKVDHCARHGEKLLLFCQEDGKVICWLCERSQEHRGHHTFLTEEVAREYQVKLQAALEMLRQKQQEAEELEADIREEKASWKTQIQYDKTNVLADFEQLRDILDWEESNELQNLEKEEEDILKSLTNSETEMVQQTQSLRELISDLEHRLQGSVMELLQGVDGVIKRTENVTLKKPETFPKNQRRVFRAPDLKGMLEVFRELTDVRRYWVDVTVAPNNISCAVISEDKRQVSSPKPQIIYGARGTRYTFPSLTNFNYCTGILGSQSITSGKHYWEVDVSKKTAWILGVCAGFQPDAMCNIEKNENYQPKYGYWVIGLEEGVKCSAFQDSSFHTPSVPFIVPLSVIICPDRVGVFLDYEACTVSFFNITNHGFLIYKFSHCSFSQPVFPYLNPRKCGVPMTLCSPSS [human TRIM5α, 330-340 = GARGTRYTFPSLT]”: 0.225 ± 0.22; for “MASGILVNVKEEVTCPICLELLTQPLSLDCGHSFCQACLTANHKKSMLDKGESSCPVCRISYQPENIRPNRHVANIVEKLREVKLSPEGQKVDHCARHGEKLLLFCQEDGKVICWLCERSQEHRGHHTFLTEEVAREYQVKLQAALEMLRQKQQEAEELEADIREEKASWKTQIQYDKTNVLADFEQLRDILDWEESNELQNLEKEEEDILKSLTNSETEMVQQTQSLRELISDLEHRLQGSVMELLQGVDGVIKRTENVTLKKPETFPKNQRRVFRAPDLKGMLEVFRELTDVRRYWVDVTVAPNNISCAVISEDKRQVSSPKPQIIYGARGTRYTFPSLVNFNYCTGILGSQSITSGKHYWEVDVSKKTAWILGVCAGFQPDAMCNIEKNENYQPKYGYWVIGLEEGVKCSAFQDSSFHTPSVPFIVPLSVIICPDRVGVFLDYEACTVSFFNITNHGFLIYKFSHCSFSQPVFPYLNPRKCGVPMTLCSPSS [human TRIM5α, 330-340 = GARGTRYTFPSLV]”: 0.164 ± 0.13.
“MASGILVNVKEEVTCPICLELLTQPLSLDCGHSFCQACLTANHKKSMLDKGESSCPVCRISYQPENIRPNRHVANIVEKLREVKLSPEGQKVDHCARHGEKLLLFCQEDGKVICWLCERSQEHRGHHTFLTEEVAREYQVKLQAALEMLRQKQQEAEELEADIREEKASWKTQIQYDKTNVLADFEQLRDILDWEESNELQNLEKEEEDILKSLTNSETEMVQQTQSLRELISDLEHRLQGSVMELLQGVDGVIKRTENVTLKKPETFPKNQRRVFRAPDLKGMLEVFRELTDVRRYWVDVTVAPNNISCAVISEDKRQVSSPKPQIIYGARGTRYTFPTFTNFNYCTGILGSQSITSGKHYWEVDVSKKTAWILGVCAGFQPDAMCNIEKNENYQPKYGYWVIGLEEGVKCSAFQDSSFHTPSVPFIVPLSVIICPDRVGVFLDYEACTVSFFNITNHGFLIYKFSHCSFSQPVFPYLNPRKCGVPMTLCSPSS [human TRIM5α, 330-340 = GARGTRYTFPTFT]”: the enrichment came out at 0.612 ± 0.056.
On the same count and under the same terms, the same measure for “MASGILVNVKEEVTCPICLELLTQPLSLDCGHSFCQACLTANHKKSMLDKGESSCPVCRISYQPENIRPNRHVANIVEKLREVKLSPEGQKVDHCARHGEKLLLFCQEDGKVICWLCERSQEHRGHHTFLTEEVAREYQVKLQAALEMLRQKQQEAEELEADIREEKASWKTQIQYDKTNVLADFEQLRDILDWEESNELQNLEKEEEDILKSLTNSETEMVQQTQSLRELISDLEHRLQGSVMELLQGVDGVIKRTENVTLKKPETFPKNQRRVFRAPDLKGMLEVFRELTDVRRYWVDVTVAPNNISCAVISEDKRQVSSPKPQIIYGARGTRYTFPTFVNFNYCTGILGSQSITSGKHYWEVDVSKKTAWILGVCAGFQPDAMCNIEKNENYQPKYGYWVIGLEEGVKCSAFQDSSFHTPSVPFIVPLSVIICPDRVGVFLDYEACTVSFFNITNHGFLIYKFSHCSFSQPVFPYLNPRKCGVPMTLCSPSS [human TRIM5α, 330-340 = GARGTRYTFPTFV]”: 0.285 ± 0.2.

The same series, now with this note: library: insertions and deletions.
In turn, “MASGILVNVKEEVTCPICLELLTQPLSLDCGHSFCQACLTANHKKSMLDKGESSCPVCRISYQPENIRPNRHVANIVEKLREVKLSPEGQKVDHCARHGEKLLLFCQEDGKVICWLCERSQEHRGHHTFLTEEVAREYQVKLQAALEMLRQKQQEAEELEADIREEKASWKTQIQYDKTNVLADFEQLRDILDWEESNELQNLEKEEEDILKSLTNSETEMVQQTQSLRELISDLEHRLQGSVMELLQGVDGVIKRTENVTLKKPETFPKNQRRVFRAPDLKGMLEVFRELTDVRRYWVDVTVAPNNISCAVISEDKRQVSSPKPQIIYGARGTRYQVNFNYCTGILGSQSITSGKHYWEVDVSKKTAWILGVCAGFQPDAMCNIEKNENYQPKYGYWVIGLEEGVKCSAFQDSSFHTPSVPFIVPLSVIICPDRVGVFLDYEACTVSFFNITNHGFLIYKFSHCSFSQPVFPYLNPRKCGVPMTLCSPSS [human TRIM5α, 2-codon deletion at 338]” gave an enrichment of 0.933 ± 0.76.
Still for that read-out and setting: the same measure for “MASGILVNVKEEVTCPICLELLTQPLSLDCGHSFCQACLTANHKKSMLDKGESSCPVCRISYQPENIRPNRHVANIVEKLREVKLSPEGQKVDHCARHGEKLLLFCQEDGKVICWLCERSQEHRGHHTFLTEEVAREYQVKLQAALEMLRQKQQEAEELEADIREEKASWKTQIQYDKTNVLADFEQLRDILDWEESNELQNLEKEEEDILKSLTNSETEMVQQTQSLRELISDLEHRLQGSVMELLQGVDGVIKRTENVTLKKPETFPKNQRRVFRAPDLKGMLEVFRELTDVRRYWVDVTVAPNNISCAVISEDKRQVSSPKPQIIYGARGTRYQYCTGILGSQSITSGKHYWEVDVSKKTAWILGVCAGFQPDAMCNIEKNENYQPKYGYWVIGLEEGVKCSAFQDSSFHTPSVPFIVPLSVIICPDRVGVFLDYEACTVSFFNITNHGFLIYKFSHCSFSQPVFPYLNPRKCGVPMTLCSPSS [human TRIM5α, 6-codon deletion at 338]”: 2 ± 0.83.
As to “MASGILVNVKEEVTCPICLELLTQPLSLDCGHSFCQACLTANHKKSMLDKGESSCPVCRISYQPENIRPNRHVANIVEKLREVKLSPEGQKVDHCARHGEKLLLFCQEDGKVICWLCERSQEHRGHHTFLTEEVAREYQVKLQAALEMLRQKQQEAEELEADIREEKASWKTQIQYDKTNVLADFEQLRDILDWEESNELQNLEKEEEDILKSLTNSETEMVQQTQSLRELISDLEHRLQGSVMELLQGVDGVIKRTENVTLKKPETFPKNQRRVFRAPDLKGMLEVFRELTDVRRYWVDVTVAPNNISCAVISEDKRQVSSPKPQIIYGARGTRYQYGARGTRYQTFVNFNYCTGILGSQSITSGKHYWEVDVSKKTAWILGVCAGFQPDAMCNIEKNENYQPKYGYWVIGLEEGVKCSAFQDSSFHTPSVPFIVPLSVIICPDRVGVFLDYEACTVSFFNITNHGFLIYKFSHCSFSQPVFPYLNPRKCGVPMTLCSPSS [human TRIM5α, 9-codon duplication at 329]”, the enrichment is 0.41 ± 0.17.
The same measure, in the same setting: the same measure for “MASGILVNVKEEVTCPICLELLTQPLSLDCGHSFCQACLTANHKKSMLDKGESSCPVCRISYQPENIRPNRHVANIVEKLREVKLSPEGQKVDHCARHGEKLLLFCQEDGKVICWLCERSQEHRGHHTFLTEEVAREYQVKLQAALEMLRQKQQEAEELEADIREEKASWKTQIQYDKTNVLADFEQLRDILDWEESNELQNLEKEEEDILKSLTNSETEMVQQTQSLRELISDLEHRLQGSVMELLQGVDGVIKRTENVTLKKPETFPKNQRRVFRAPDLKGMLEVFRELTDVRRYWVDVTVAPNNISCAVISEDKRQVSSPKPQIIYGARGTRYQYQTFVNFNYCTGILGSQSITSGKHYWEVDVSKKTAWILGVCAGFQPDAMCNIEKNENYQPKYGYWVIGLEEGVKCSAFQDSSFHTPSVPFIVPLSVIICPDRVGVFLDYEACTVSFFNITNHGFLIYKFSHCSFSQPVFPYLNPRKCGVPMTLCSPSS [human TRIM5α, 2-codon duplication at 336]”: 0.302 ± 0.12; for “MASGILVNVKEEVTCPICLELLTQPLSLDCGHSFCQACLTANHKKSMLDKGESSCPVCRISYQPENIRPNRHVANIVEKLREVKLSPEGQKVDHCARHGEKLLLFCQEDGKVICWLCERSQEHRGHHTFLTEEVAREYQVKLQAALEMLRQKQQEAEELEADIREEKASWKTQIQYDKTNVLADFEQLRDILDWEESNELQNLEKEEEDILKSLTNSETEMVQQTQSLRELISDLEHRLQGSVMELLQGVDGVIKRTENVTLKKPETFPKNQRRVFRAPDLKGMLEVFRELTDVRRYWVDVTVAPNNISCAVISEDKRQVSSPKPQIIYGARGTRYRGTRYQTFVNFNYCTGILGSQSITSGKHYWEVDVSKKTAWILGVCAGFQPDAMCNIEKNENYQPKYGYWVIGLEEGVKCSAFQDSSFHTPSVPFIVPLSVIICPDRVGVFLDYEACTVSFFNITNHGFLIYKFSHCSFSQPVFPYLNPRKCGVPMTLCSPSS [human TRIM5α, 5-codon duplication at 332]”: 0.486 ± 0.064; for “MASGILVNVKEEVTCPICLELLTQPLSLDCGHSFCQACLTANHKKSMLDKGESSCPVCRISYQPENIRPNRHVANIVEKLREVKLSPEGQKVDHCARHGEKLLLFCQEDGKVICWLCERSQEHRGHHTFLTEEVAREYQVKLQAALEMLRQKQQEAEELEADIREEKASWKTQIQYDKTNVLADFEQLRDILDWEESNELQNLEKEEEDILKSLTNSETEMVQQTQSLRELISDLEHRLQGSVMELLQGVDGVIKRTENVTLKKPETFPKNQRRVFRAPDLKGMLEVFRELTDVRRYWVDVTVAPNNISCAVISEDKRQVSSPKPQIIYGARGTRYRYQTFVNFNYCTGILGSQSITSGKHYWEVDVSKKTAWILGVCAGFQPDAMCNIEKNENYQPKYGYWVIGLEEGVKCSAFQDSSFHTPSVPFIVPLSVIICPDRVGVFLDYEACTVSFFNITNHGFLIYKFSHCSFSQPVFPYLNPRKCGVPMTLCSPSS [human TRIM5α, 2-codon duplication at 335]”: 0.575 ± 0.48.
